Measured values published in article PMC10668032.
The list shows a part of the results. At the low end of the ranking, values are background and their order means little.

Biological target: SIX1-Q177R homeodomain (UniProt Q15475)
Test: universal protein binding microarray
Conditions: Universal all-10-mer PBM (8x60K, AMADID 030236), 300 nM GST-tagged protein, Alexa Fluor 488 anti-GST; buffer, salt, pH and temperature not stated; high values mean tight binding; most listed sequences are background and not binding sites; double strand, one strand shown

| Sequence | binding signal [E-score] |
| --- | --- |
| AAGAAAAG | -0.0297 |
| CCCTCGTA | 0.119 |
| GCTCAGAA | -0.125 |
| AGAGTTCG | -0.0736 |
| AGTAGAAG | -0.011 |
| ACCCCGTA | 0.0953 |
| ACTTGCAG | -0.174 |
| ACAACTAA | -0.0135 |
| CTGGGTAC | 0.278 |
| GATTTTAC | 0.0827 |
| TCAGTGAA | -0.0828 |
| AGGTTCGC | -0.105 |
| ACACAGGT | 0.252 |
| CCGTGGGC | 0.0182 |
| GTATACAC | 0.411 |
| GGCGACAA | -0.199 |
| CAGGACCC | 0.116 |
| AACCAGAG | -0.234 |
| CTGAGGGA | -0.174 |
| CCGGTCTA | -0.112 |
| CCCTGCTC | 0.0325 |
| CTCCCATA | -0.0252 |
| CACTTATA | 0.124 |
| AGAAAAAT | 0.0163 |
| AGGCAAGG | -0.23 |

| Sequence | binding signal [E-score] |
| --- | --- |
| ATGGGCAG | -0.0776 |
| ATAATCCG | -0.174 |
| AGCCAGGC | -0.0654 |
| CCCGATTC | 0.0349 |
| CCCCCTTC | 0.21 |
| GAATGAAA | -0.174 |
| CAAAGGTG | 0.329 |
| ACATTCCA | -0.195 |
| AGTGCAAC | 0.0591 |
| ACAATAAT | -0.251 |
| ACCGACTC | 0.204 |
| TAGCACTA | -0.00254 |
| AAGTTCGT | -0.0682 |
| CACTGATA | 0.258 |
| CAGACTCA | -0.133 |
| GGCAAACA | 0.0177 |
| CCGTAGCG | -0.153 |
| CTCCACCC | 0.182 |
| CACCCACC | 0.252 |
| AGTCTAGC | -0.201 |
| GATGATCA | -0.0144 |
| CTCTTAGA | -0.134 |
| AGCCACAC | 0.208 |
| AGTGCGCC | -0.0576 |
| ACGACAAT | -0.00954 |

| Sequence | binding signal [E-score] |
| --- | --- |
| GATAGAGC | -0.285 |
| AGGCCTCA | -0.188 |
| ACAACTCA | 0.0668 |
| AGTCCTCC | -0.0984 |
| TAACCACA | -0.0187 |
| GAATTCGA | -0.137 |
| CTGAGCAG | -0.207 |
| TAACTCCA | 0.138 |
| ATAACACG | 0.402 |
| AGGTGTTG | 0.448 |
| CACGTTTA | 0.0395 |
| ATCGGTTA | 0.0118 |
| ACCTATCT | -0.029 |
| CAGCCAGA | -0.217 |
| AGTACACC | 0.481 |
| CCTTGGAG | 0.0221 |
| CCAAATTA | -0.176 |
| ATAGACCC | 0.0353 |
| ATATTGAG | -0.145 |
| GCTTCCTA | -0.15 |
| CCTACTGC | -0.133 |
| CAAACTAA | -0.0502 |
| ACAGGCAC | -0.0324 |
| ACTCGAGC | 0.0645 |
| ATGAGCCA | -0.122 |

| Sequence | binding signal [E-score] |
| --- | --- |
| ACATGCCA | -0.15 |
| ACTGGTGA | -0.0176 |
| CGATTAAA | 0.0247 |
| CTTCCATA | -0.25 |
| AAACTCTG | -0.198 |
| GCACTCCC | 0.127 |
| CCTCCTAA | 0.197 |
| GGCTACCA | 0.0305 |
| ATTCGTCC | -0.088 |
| CATTCGGA | -0.0373 |
| TTGAGCAA | -0.2 |
| ATTCGCAG | -0.196 |
| CTTCGAAA | 0.0326 |
| GGGCATAA | -0.0847 |
| AGGGACCG | -0.238 |
| ATTAATGC | -0.0151 |
| CACTACCC | 0.274 |
| ACTGTCCG | -0.0475 |
| GTATCCCA | 0.252 |
| CAATCACC | -0.023 |
| GGAGTCCC | 0.171 |
| ACAGTGAG | -0.132 |
| CGAATGCG | -0.0892 |
| CTAAGTAC | -0.033 |
| AGGCAATG | -0.193 |

| Sequence | binding signal [E-score] |
| --- | --- |
| GCTACCAC | 0.181 |
| CACCCAGC | 0.127 |
| CCCTATCC | 0.0276 |
| ACGCCTTG | 0.047 |
| TCTTAAGA | -0.285 |
| CCGGAGAG | 0.00094 |
| AAGACATC | -0.256 |
| AGGCCCAG | -0.148 |
| TGAACAAA | -0.163 |
| CCTCCTCG | 0.0483 |
| ACATTGGC | -0.046 |
| CCGAAGAC | 0.0154 |
| CAGGGATA | 0.0508 |
| CGTGTGGC | 0.181 |
| CTGTGAAA | -0.0901 |
| GAGTAGAC | -0.00771 |
| AAGCACGC | -0.0661 |
| AGGGGGCA | -0.0454 |
| CGGATTAA | -0.022 |
| CGGGCCAA | -0.15 |
| CTGTATAC | 0.122 |
| CCTCCCGA | -0.0757 |
| ATCCTCTA | 0.0468 |
| AACATTCG | -0.169 |
| TAATATCA | -0.0163 |

| Sequence | binding signal [E-score] |
| --- | --- |
| ACAAGGGC | 0.00401 |
| CATACTCA | 0.0458 |
| GTCCCGAA | -0.165 |
| CAGAAGCC | -0.161 |
| CTTTCCCA | -0.0356 |
| CTTATTTC | -0.193 |
| CTGACCGC | -0.221 |
| ACCGCCTG | 0.146 |
| AAGAGCCG | -0.148 |
| CCAGCCTA | -0.0268 |
| ACACCGCA | 0.48 |
| AAGCGACG | 0.00388 |
| CTATTTGA | -0.186 |
| CTCCGTTA | 0.011 |
| ATTCGGTG | 0.325 |
| GCGCAGGA | -0.0255 |
| CCTCCACC | 0.0104 |
| CTAGCAGC | -0.143 |
| GCTTCACC | -0.0492 |
| GGGCGCAC | 0.034 |
| GATACGGA | 0.215 |
| GTTACGTA | -0.0292 |
| TATACCAA | 0.0301 |
| GGTAAGAC | 0.0227 |
| GGATACAA | 0.161 |

| Sequence | binding signal [E-score] |
| --- | --- |
| GATCCAAA | -0.0941 |
| TTACTAAA | 0.038 |
| ATCCCAAC | 0.136 |
| AGGAATTC | -0.242 |
| AGAACTTC | -0.313 |
| CCGTAGTA | -0.0743 |
| ACCAGGTG | 0.217 |
| TAGTGATA | 0.0624 |
| CGGGGAAG | 0.109 |
| AACCGTTG | -0.0123 |
| GATTTCCA | -0.217 |
| AGCTCAAC | 0.00413 |
| CTGCTAAG | -0.127 |
| AGCGTGAA | -0.118 |
| TCTCCACA | -0.0547 |
| CCACGGCA | 0.0366 |
| CCACTAGG | -0.119 |
| CAACACTG | 0.323 |
| ATGATGAA | -0.198 |
| AGATAACC | -0.175 |
| CGGTTGAG | -0.0399 |
| AGGACCCT | 0.0335 |
